Experimental data taken from the RNAGym collection of RNA variant scans (doi:10.1101/gad.245936.114).
Variants at the background level are over-represented here.

B1: tRNA (parent)
chain: CUCUCGGUAGCCAAGUUGGUUUAAGGCGCAAGACUUUAAUUUAUCACUACGAAAUCUUGAGAUCGGGCGUUCGACUCGCCCCCGGGAGAUUUUUUCCUCGAGCAA

Variants of: B1
Experiment: nonsense suppression (GFP-seq) (ratio to wild type); higher = more function; SUP4oc tRNA, yeast GFP reporter sort-seq
How it was run: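 To measure nonsense suppression, tRNA variants from a library carrying ~3% random mutations were integrated into the yeast genome alongside RFP and a GFP ochre reporter under galactose control. Growth took place in raffinose/galactose medium supplemented with 80 mg/L adenine, followed by sorting into GFP/RFP bins and Illumina sequencing of each bin (phred ≥30). For each variant with ≥100 reads and ≥30 cells, the bin median GFP/RFP values were weighted by its estimated cell share per bin and referenced to the unmutated parent tRNA.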

| Variant | nonsense suppression |
| --- | --- |
| U4G C27A | ≤ 0.026 |
| U4G U17G G69A | ≤ 0.026 |
| C5A G25C A74U | ≤ 0.026 |
| C5A U35C U55A C80U | ≤ 0.026 |
| U4G U76A | 0.109 |
| U4G U76G | ≤ 0.026 |
| C5A G18C A54C | ≤ 0.026 |
| C5G C11A A30G | ≤ 0.026 |
| U4G G88A | ≤ 0.026 |
| C5A A23U G59C | ≤ 0.026 |
| C5A C68A | ≤ 0.026 |
| C5A G19A | ≤ 0.026 |
| C5A C75A | ≤ 0.026 |
| C5A C75U | ≤ 0.026 |
| C5U A14G U17A | ≤ 0.026 |
| C5A A23U | ≤ 0.026 |
| C5A C11G A23C U55A G59C C79G | ≤ 0.026 |
| C5A G6C | ≤ 0.026 |
| C5U A13G A14C | ≤ 0.026 |
| U4G C12U C72U | ≤ 0.026 |
| C5G C12G U21G A62C | ≤ 0.026 |
| C5G G25U A30G | ≤ 0.026 |
| C5A A13G | ≤ 0.026 |
| C5A A13U | ≤ 0.026 |

| Variant | nonsense suppression |
| --- | --- |
| C5G A14G A60C | ≤ 0.026 |
| C5A G78C | ≤ 0.026 |
| U4G C12U G19U C68G C77A C82A | ≤ 0.026 |
| C5G U70A | ≤ 0.026 |
| U4G C12A A23C | ≤ 0.026 |
| C5G U76A | ≤ 0.026 |
| C5G U76C | ≤ 0.026 |
| C5A C82G | ≤ 0.026 |
| C5A C64A C77A | ≤ 0.026 |
| U4G U57A | ≤ 0.026 |
| C5A G88A | ≤ 0.026 |
| C5A G88U | ≤ 0.026 |
| C5A A9G U21C A24U G25U U35G | ≤ 0.026 |
| C5G G15U | ≤ 0.026 |
| C5U A24G | ≤ 0.026 |
| C5A U55A | ≤ 0.026 |
| U4G G26U G84A | ≤ 0.026 |
| C5G G15A C81U | ≤ 0.026 |
| C5G U17C C68U | ≤ 0.026 |
| C5A A24C G61U G67C | ≤ 0.026 |
| U4G G69C G78A | ≤ 0.026 |
| C5A A9G C81A | ≤ 0.026 |
| C5G G59A C81G | ≤ 0.026 |
| C5U A9U | ≤ 0.026 |

| Variant | nonsense suppression |
| --- | --- |
| C5U A33G A89G | ≤ 0.026 |
| C5G C81A | ≤ 0.026 |
| C5A A30U C68A | ≤ 0.026 |
| C5G G19U U63G G66C | ≤ 0.026 |
| C5A A9U C29A C77U A87G | ≤ 0.026 |
| C5G U21C A23U C81A | ≤ 0.026 |
| C5G A33U U63G | ≤ 0.026 |
| U4G C34A G69A G86C | ≤ 0.026 |
| C5A G6U G7U | ≤ 0.026 |
| C5G U8A C11G U55C | ≤ 0.026 |
| C5A C29G C80G | ≤ 0.026 |
| C5A G7U G86A | ≤ 0.026 |
| C5A C79G G86U | ≤ 0.026 |
| C5A G85C | ≤ 0.026 |
| U4G U21C G73A | ≤ 0.026 |
| U4G G61A C82A | ≤ 0.026 |
| C5A C11A U35G G66A | ≤ 0.026 |
| U4G G19A A62U | ≤ 0.026 |
| C5A C29A | ≤ 0.026 |
| C5G G7U A54C | ≤ 0.026 |
| C5U A13G U20C A24G | ≤ 0.026 |
| C5G A9C G15U A30U U58G G61A | ≤ 0.026 |
| U4G C11U | ≤ 0.026 |
| C5A A13U A74U | ≤ 0.026 |

| Variant | nonsense suppression |
| --- | --- |
| C5G A62G | ≤ 0.026 |
| C5G U16G C82U | ≤ 0.026 |
| C5U A33C C80A A87U | ≤ 0.026 |
| C5G A33G C82A | ≤ 0.026 |
| U4G C34U U55C | ≤ 0.026 |
| C5G G61U U70C G73U C77U | ≤ 0.026 |
| C5A A13C G19U G32A G66C U71C | ≤ 0.026 |
| U4G U55C G61A | ≤ 0.026 |
| C5U A24U C27A U57C G86C | ≤ 0.026 |
| C5G U22C C29A | ≤ 0.026 |
| C5A C12U G18U U70A C79G | ≤ 0.026 |
| C5U A54C C64U | ≤ 0.026 |
| C5A U76C | ≤ 0.026 |
| C5G U16G U21G A23G C75A | ≤ 0.026 |
| C5U A13U U58A G65U | ≤ 0.026 |
| C5A G26A U57C G73A A74C | ≤ 0.026 |
| U4G G25U A60U G85A | ≤ 0.026 |
| U4G U70C G86C | ≤ 0.026 |
| C5A C80A G88A | ≤ 0.026 |
| C5G U70A C77A | ≤ 0.026 |
| C5G U57C U70A C80A | ≤ 0.026 |
| C5A A24G A33G | ≤ 0.026 |
| C5G A9U A33C | ≤ 0.026 |
| C5A G73C | ≤ 0.026 |

| Variant | nonsense suppression |
| --- | --- |
| C5U A33G C68U G73C U76A G78C | ≤ 0.026 |
| C5A U8C G10C G65A C77A | ≤ 0.026 |
| C5G C64A | ≤ 0.026 |
| C5A A14C G61A C83G | ≤ 0.026 |
| U4G G26U C27A U71G C77A | ≤ 0.026 |
| C5A C75A C82A | ≤ 0.026 |
| U4G G61A G78U | ≤ 0.026 |
| C5G C34U A62U | ≤ 0.026 |
| C5A C34G G65A C80G | ≤ 0.026 |
| C5A G7U C72G | ≤ 0.026 |
| C5U A24G C34A | ≤ 0.026 |
| U4G G32U | ≤ 0.026 |
| U4G G7A C34G A60G | ≤ 0.026 |
| C5A A9U C34A G84C | ≤ 0.026 |
| C5U A30G A31U G59U G84A | ≤ 0.026 |
| C5G G19A A54C | ≤ 0.026 |
| U4G U22A C34G | ≤ 0.026 |
| U4G C79U | 0.173 |
| C5A U22C A74C | ≤ 0.026 |
| U4G U71A G73U C80A A87C | ≤ 0.026 |
| C5G U63G | ≤ 0.026 |
| C5G G7A U17G C72U | ≤ 0.026 |
| U4G C80A G84C | ≤ 0.026 |
| C5A U71G A74U | ≤ 0.026 |

| Variant | nonsense suppression |
| --- | --- |
| C5G G59U U70C C79U | ≤ 0.026 |
| U4G G18A G85A | ≤ 0.026 |
| C5G A74G | ≤ 0.026 |
| C5A C11U U21C A31G G59C | ≤ 0.026 |
| C5A U22C G78U | ≤ 0.026 |
| C5A A9U A54C | ≤ 0.026 |
| C5A A23U A60U C64G | ≤ 0.026 |
| C5G G6A A13U C56A U57A G61U | ≤ 0.026 |
| C5U A33G C56U | ≤ 0.026 |
| C5G A14U | ≤ 0.026 |
| C5G C77A | ≤ 0.026 |
| C5G A23U G67U | ≤ 0.026 |
| C5A U8C | ≤ 0.026 |
| C5G G73U G86A | ≤ 0.026 |
| U4G C81A G86A A87G | ≤ 0.026 |
| C5U A9G C64A | ≤ 0.026 |
| U4G G10U U21G U63C G69U | ≤ 0.026 |
| C5G A33G | ≤ 0.026 |
| C5U A54G A60U A74G | ≤ 0.026 |
| U4G G66A | 0.0774 |
| C5U A13G U17A G61U G88C | ≤ 0.026 |
| U4G G73C | 0.0291 |
| U4G G69C G86A | ≤ 0.026 |
| C5U A33G C34G U71C | ≤ 0.026 |

| Variant | nonsense suppression |
| --- | --- |
| C5G C12A C29U | ≤ 0.026 |
| C5G A62C C64A | ≤ 0.026 |
| C5A U17C G84A | ≤ 0.026 |
| U4G U57G A60U | ≤ 0.026 |
| C5G G25C G26U A62U G66A | ≤ 0.026 |
| U4G G10U A14U U63A | ≤ 0.026 |
| C5A G6U A9G C11A C12G G25U G66U | ≤ 0.026 |
| U4G G15U C64U | ≤ 0.026 |
| C5G G19C G28C G88C | ≤ 0.026 |
| U4G C12U C29U G84A | ≤ 0.026 |
| C5G A33U U35G | ≤ 0.026 |
| U4G U20A | 0.0644 |
| C5A C64A U71A C75A C80G | ≤ 0.026 |
| U4G C12A G15U G73C G86U | ≤ 0.026 |
| U4G G28U A54C A60C A62C | ≤ 0.026 |
| C5G G10U | ≤ 0.026 |
| C5G C27U C75U | ≤ 0.026 |
| C5A A9U U16G G25A U35G U63A | ≤ 0.026 |
| C5G C79U | ≤ 0.026 |
| U4G G6A | 0.0297 |
| U4G C12A U17G G65C G66A C83A | ≤ 0.026 |
| U4G G15C U17C | ≤ 0.026 |
| C5G G61C U70C | ≤ 0.026 |
